These are yes or no findings as the source states them, for the method shown. Some entries that bind do so weakly or less than the wild type. For some of these results: Sequences can lack the tags named with a protein.
T1: Nse5-LexA (wild type) (S. cerevisiae, UniProt Q03718 1-556)
T1 construct: Nse5 of Saccharomyces cerevisiae, NSE5 gene cloned into a pEG202-derived bait plasmid; also called Non-Smc element 5; J-038; source: yeast two-hybrid fusion, galactose-inducible promoter, in S. cerevisiae
T1 sequence (looked up): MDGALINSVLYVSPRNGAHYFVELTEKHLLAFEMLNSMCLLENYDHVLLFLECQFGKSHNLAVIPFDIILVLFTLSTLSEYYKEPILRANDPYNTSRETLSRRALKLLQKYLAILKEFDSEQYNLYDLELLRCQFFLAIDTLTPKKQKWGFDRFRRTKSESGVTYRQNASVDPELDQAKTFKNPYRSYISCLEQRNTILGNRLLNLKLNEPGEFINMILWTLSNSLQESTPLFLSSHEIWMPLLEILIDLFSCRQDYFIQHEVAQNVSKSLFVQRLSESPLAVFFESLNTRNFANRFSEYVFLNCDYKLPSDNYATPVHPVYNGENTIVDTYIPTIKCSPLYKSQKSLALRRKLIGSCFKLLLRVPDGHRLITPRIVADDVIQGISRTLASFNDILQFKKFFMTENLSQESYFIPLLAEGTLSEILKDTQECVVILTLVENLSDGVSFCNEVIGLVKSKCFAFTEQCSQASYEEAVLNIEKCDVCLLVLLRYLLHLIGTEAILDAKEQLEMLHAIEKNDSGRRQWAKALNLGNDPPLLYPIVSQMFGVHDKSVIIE

T2: Nse5-L70A-LexA (S. cerevisiae) (UniProt Q03718)
T2 sequence: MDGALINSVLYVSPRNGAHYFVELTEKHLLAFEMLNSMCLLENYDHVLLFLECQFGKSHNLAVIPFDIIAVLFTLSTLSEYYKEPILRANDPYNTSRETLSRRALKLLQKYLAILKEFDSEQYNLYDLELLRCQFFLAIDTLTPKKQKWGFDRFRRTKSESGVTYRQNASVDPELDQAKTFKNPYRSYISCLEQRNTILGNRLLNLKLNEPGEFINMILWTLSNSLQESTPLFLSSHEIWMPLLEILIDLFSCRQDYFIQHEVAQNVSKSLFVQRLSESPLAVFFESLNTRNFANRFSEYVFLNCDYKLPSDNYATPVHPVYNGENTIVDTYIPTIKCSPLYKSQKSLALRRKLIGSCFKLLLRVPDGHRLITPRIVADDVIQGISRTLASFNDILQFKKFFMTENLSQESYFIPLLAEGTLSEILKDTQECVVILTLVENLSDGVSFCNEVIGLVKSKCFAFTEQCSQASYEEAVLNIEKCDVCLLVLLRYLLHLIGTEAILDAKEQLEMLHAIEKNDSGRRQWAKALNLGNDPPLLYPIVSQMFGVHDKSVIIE

T3: Nse5-ts2-LexA (S. cerevisiae) (UniProt Q03718)
T3 sequence: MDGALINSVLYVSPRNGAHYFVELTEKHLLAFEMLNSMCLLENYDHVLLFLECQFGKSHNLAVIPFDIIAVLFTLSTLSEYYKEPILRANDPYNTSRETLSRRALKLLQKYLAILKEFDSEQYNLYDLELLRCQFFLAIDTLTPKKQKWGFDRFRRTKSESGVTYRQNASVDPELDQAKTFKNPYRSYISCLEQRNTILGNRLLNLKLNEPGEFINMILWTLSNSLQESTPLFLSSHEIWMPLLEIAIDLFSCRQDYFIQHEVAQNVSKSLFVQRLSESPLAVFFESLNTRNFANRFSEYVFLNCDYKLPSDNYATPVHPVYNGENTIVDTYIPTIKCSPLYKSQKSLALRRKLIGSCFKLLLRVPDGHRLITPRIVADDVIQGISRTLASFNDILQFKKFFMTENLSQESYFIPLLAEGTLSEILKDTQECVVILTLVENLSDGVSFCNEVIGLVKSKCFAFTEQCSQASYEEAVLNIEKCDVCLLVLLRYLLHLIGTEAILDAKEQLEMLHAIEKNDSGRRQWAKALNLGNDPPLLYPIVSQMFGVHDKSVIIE

T4: Nse5-L247A-LexA (S. cerevisiae) (UniProt Q03718)
T4 sequence: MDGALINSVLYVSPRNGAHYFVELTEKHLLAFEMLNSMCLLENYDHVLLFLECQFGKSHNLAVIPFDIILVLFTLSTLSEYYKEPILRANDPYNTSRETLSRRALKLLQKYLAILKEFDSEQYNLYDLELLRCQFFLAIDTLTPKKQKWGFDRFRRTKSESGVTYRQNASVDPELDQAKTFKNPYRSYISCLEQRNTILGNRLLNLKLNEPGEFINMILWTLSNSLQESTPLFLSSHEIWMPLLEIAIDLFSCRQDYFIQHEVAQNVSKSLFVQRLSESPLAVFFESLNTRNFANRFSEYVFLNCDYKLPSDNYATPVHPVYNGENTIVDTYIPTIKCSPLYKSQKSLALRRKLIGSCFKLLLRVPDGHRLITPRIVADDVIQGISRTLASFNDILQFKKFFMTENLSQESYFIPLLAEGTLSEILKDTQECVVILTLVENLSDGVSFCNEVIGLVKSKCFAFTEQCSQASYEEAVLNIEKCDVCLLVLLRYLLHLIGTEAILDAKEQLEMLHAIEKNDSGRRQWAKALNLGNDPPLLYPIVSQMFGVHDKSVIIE


Key:
Test in all cases: two-hybrid; LexA bait and B42 activating domain prey, galactose-induced; liquid culture, quantitative beta-galactosidase activity of permeabilized cells with reporter pSH18034, wild-type cells (JC470)
Nse5-LexA (wild type) = target: T1, Nse5-LexA (wild type)
[1] = target: T2, Nse5-L70A-LexA (S. cerevisiae)
[2] = target: T3, Nse5-ts2-LexA (S. cerevisiae)
[3] = target: T4, Nse5-L247A-LexA (S. cerevisiae)

Binder | binding (Nse5-LexA (wild type)) | binding [1] | binding [2] | binding [3]
Siz1-AD (protein, UniProt Q04195 1-904) MINLEDYWEDETPGPDREPTNELRNEVEETITLMELLKVSELKDICRSVSFPVSGRKAVLQDLIRNFLQNALVVGKSDPYRVQAVKFLIERIRKNEPLPVYKDLWNALRKGTPLSAITVRSMEGPPTVQQQSPSVIRQSPTQRRKTSTTSSTSRAPPPTNPDASSSSSSFAVPTIHFKESPFYKIQRLIPELVMNVEVTGGRGMCSAKFKLSKADYNLLSNPNSKHRLYLFSGMINPLGSRGNEPIQFPFPNELRCNNVQIKDNIRGFKSKPGTAKPADLTPHLKPYTQQNNVELIYAFTTKEYKLFGYIVEMITPEQLLEKVLQHPKIIKQATLLYLKKTLREDEEMGLTTTSTIMSLQCPISYTRMKYPSKSINCKHLQCFDALWFLHSQLQIPTWQCPVCQIDIALENLAISEFVDDILQNCQKNVEQVELTSDGKWTAILEDDDDSDSDSNDGSRSPEKGTSVSDHHCSSSHPSEPIIINLDSDDDEPNGNNPHVTNNHDDSNRHSNDNNNNSIKNNDSHNKNNNNNNNNNNNNNDNNNSIENNDSNSNNKHDHGSRSNTPSHNHTKNLMNDNDDDDDDRLMAEITSNHLKSTNTDILTEKGSSAPSRTLDPKSYNIVASETTTPVTNRVIPEYLGNSSSYIGKQLPNILGKTPLNVTAVDNSSHLISPDVSVSSPTPRNTASNASSSALSTPPLIRMSSLDPRGSTVPDKTIRPPINSNSYTASISDSFVQPQESSVFPPREQNMDMSFPSTVNSRFNDPRLNTTRFPDSTLRGATILSNNGLDQRNNSLPTTEAITRNDVGRQNSTPVLPTLPQNVPIRTNSNKSGLPLINNENSVPNPPNTATIPLQKSRLIVNPFIPRRPYSNVLPQKRQLSNTSSTSPIMGTWKTQDYGKKYNSG | binds |  |  | 
Ubc9-C93A/K153R (enzyme, UniProt P50623 1-157) MSSLCLQRLQEERKKWRKDHPFGFYAKPVKKADGSMDLQKWEAGIPGKEGTNWAGGVYPITVEYPNEYPSKPPKVKFPAGFYHPNVYPSGTIALSILNEDQDWRPAITLKQIVLGVQDLLDSPNPNSPAQEPAWRSFSRNKAEYDKKVLLQARQYSK | binds |  |  | 
Smt3-AD (natural protein, S. cerevisiae, UniProt Q12306 1-101, looked up, Smt3 (SUMO) of Saccharomyces cerevisiae, SMT3 cloned into a pJG4-6-derived prey vector; also called SUMO; J-043; source: yeast two-hybrid fusion, galactose-inducible promoter, in S. cerevisiae) MSDSEVNQEAKPEVKPEVKPETHINLKVSDGSSEIFFKIKKTTPLRRLMEAFAKRQGKEMDSLRFLYDGIRIQADQTPEDLDMEDNDIIEAHREQIGGATY | binds | no binding | no binding | no binding
Siz2-AD (protein, UniProt Q12216 1-726) MASVMSNNNNNNNNNNASYMFTNPLSNTGGGLINEIKDAINEMEQLKVLELKQICKSLDLSITGKKAVLQDRIKQFLRKSCDIGHIDPWRPKAIKILIAKVRINSSLPKYSTLWETLKTGAFKHPVASGQLPVTALQSTALPPYSQQQALAYSFTSPFYKPIVQIPDANKKLKQSAGRGCTKMKFKVSKSNHDLLKSNKSYKLYLFSGFSIPFIYETVGHEAIDFPYPCELVFNGTKLEDNVKGLKKQNGTGNPANLTPYLKVPTEMNHLDLHYLNIDKEYSISCFIVEVFSPEALLGKILKRPKIIKQATTAYIKRTLNEQDDDDIITTSTVLSLQCPISCTRMKYPAKTDQCKHIQCFDALWFLHSQSQVPTWQCPICQHPIKFDQLKISEFVDNIIQNCNEDVEQVEISVDGSWKPIHNSSAVITDTVNQNHSVKNENQGTVKQEQDYDSRNAFDTNLRNGSNHNEPEIISLDSSDDEAFIPASKSFPTHVNPRNDQLRADIFPSESEGSSDYNPNHTSTPKGSPTMDQDNYQDAFQMRSFLNQGATTNINDTPTNNSSINSFVTATNGDSRIFYNRGPSTPLLPAVLQNLTNQTEAQRNPYGPNYNTTAQDRNLLGIEGDLPPIPPVDPNSEAETELPTRTTSAAHLPPYIHVSTSGHGDDGKIRKRRHSNVSIYIPKNPYATLMKRRPQANHAIMNKTLAQTNDFNTSAQDNSEVVDLTSD | binds |  |  | 
Ubc9-C93A (enzyme, UniProt P50623 1-157) MSSLCLQRLQEERKKWRKDHPFGFYAKPVKKADGSMDLQKWEAGIPGKEGTNWAGGVYPITVEYPNEYPSKPPKVKFPAGFYHPNVYPSGTIALSILNEDQDWRPAITLKQIVLGVQDLLDSPNPNSPAQEPAWRSFSRNKAEYDKKVLLQAKQYSK | binds |  |  | 
Ubc9-K153R (enzyme, UniProt P50623 1-157) MSSLCLQRLQEERKKWRKDHPFGFYAKPVKKADGSMDLQKWEAGIPGKEGTNWAGGVYPITVEYPNEYPSKPPKVKFPAGFYHPNVYPSGTICLSILNEDQDWRPAITLKQIVLGVQDLLDSPNPNSPAQEPAWRSFSRNKAEYDKKVLLQARQYSK | binds |  |  | 
Cst9-AD (protein, UniProt Q06032 1-482) MGGYLAIVFIPQTNTKSMREKKQKCLKQVRRLSLISPKKYIMPDSIFEQPFVYCGVCHRRTSHGDPLRLTSCAHILCSQHSPLTSKVCPICRSSDISIINLVESKQLPTDIRIFFEPLPPLLESLYNVSQFQLNGLSKQCQYYQNHCLKLREKCARQQQLLYQAKIELDSMAILKKRIQELESVLNHNNVSSMSVGVLPTRNSHQNHYQPPPTVDLTVDDNSLEEFEAKSFIKKLKKNSSLRNSSKNNNGTVTPSTSGRVNKNQPLFMETLNNPNRNSIPPPGMNPNANSNLPNISTIAESTNLNRFSFSPVRVAKGFDGKLPNLDILTNNGSVSSKNISRLSSASLQPSSPLSSSSNRLILPNSNLKELHHSNTPLTSTSTQFPSALEKLKITRKRNNTISGSNRITHNLSSHVRSSGLAFSSSSNSLQQSKLPKSNILKRSNSTQQLTNTHLKSDNHLPPRSSNTVLGSSKKNNKFRRIR | no binding |  |  | 

Reference: publication PMC4920195, “Non-Smc element 5 (Nse5) of the Smc5/6 complex interacts with SUMO pathway components” (Biology Open, 2016)
